This is one part of the list.

To fix the notation:
B1: PhoQ; a variant is named by its letters at X, in order, P23837 (parent)
chain: MKKLLRLFFPLSLRVRFLLATAAVVLVLSLAYGMVALIGYSVSFDKTTFRLLRGESNLFYTLAKWENNKLHVELPENIDKQSPTMTLIYDENGQLLWAQRDVPWLMKMIQPDWLKSNGFHEIEADVNDTSLLLSGDHSIQQQLQEVREDDDDAEMTHSVAVNVYPATSRMPKLTIVVVDTIPVELKSSYMVWSWFIYVLSANLLLVIPLLWVAAWWSLRPIEALAKEVRELEEHNRELLNPATTRELTSLVRNLNRLLKSERERYDKYRTTLTDLTHSLKTPLXXLQXXLRSLRSEKMSVSDAEPVMLEQISRISQQIGYYLHRASMRGGTLLSRELHPVAPLLDNLTSALNKVYQRKGVNISLDISPEISFVGEQNDFVEVMGNVLDNACKYCLEFVEISARQTDEHLYIVVEDDGPGIPLSKREVIFDRGQRVDTLRPGQGVGLAVAREITEQYEGKIVAGESMLGGARMEVIFGRQHSAPKDE

The variants in the experiment derive from B1. Description: enrichment ratio after two sorts for PhoP signalling (ratio (wild type AVST 3.29)); higher = more functional. As to conditions: with PhoP (E. coli).
As for AWQT, the enrichment ratio is no more than 0.25. For AWCP, the enrichment ratio is no more than 0.25. Next, FIQA: no more than 0.25; PPKR: no more than 0.25; PCPP: no more than 0.25. Next, ADTT: no more than 0.25; DMHQ: no more than 0.25.

In the case of NKDC, the enrichment ratio was no more than 0.25. The figure for TMNK is no more than 0.25; for KHTV it is no more than 0.25. Next, NQQS: no more than 0.25.

For LEDW, the enrichment ratio was no more than 0.25. Regarding KWGY, the enrichment ratio was no more than 0.25.

With YQFL, the enrichment ratio was no more than 0.25. With WPYN, the enrichment ratio is no more than 0.25.

As for QPKI, the enrichment ratio is no more than 0.25. The figure for QFYG is no more than 0.25; for QSFL it is 7.67; for DLMN it is no more than 0.25. As to VCVV, the enrichment ratio was no more than 0.25. Next, VQVN: no more than 0.25; RKKS: no more than 0.25; SYHR: no more than 0.25. The figure for AKHI is no more than 0.25.

Regarding RDKK, the enrichment ratio was no more than 0.25. Next, QKYD: no more than 0.25; MCAN: 22.5. FHVC: the enrichment ratio is no more than 0.25. Next, FRAC: no more than 0.25; EMGD: no more than 0.25; PQSL: no more than 0.25. Regarding AACA, the enrichment ratio amounted to 7.7. As to DTFF, the enrichment ratio was no more than 0.25. For LLQV, the enrichment ratio was no more than 0.25.

Regarding VNWW, the enrichment ratio is no more than 0.25. Next, GKMI: no more than 0.25. For SFKI, the enrichment ratio was no more than 0.25. With TAHI, the enrichment ratio came out at 11. ANRN: the enrichment ratio is no more than 0.25. The figure for MPPV is no more than 0.25. Turning to SICK, the enrichment ratio stood at 14.6. Next, LGDW: no more than 0.25; REDA: no more than 0.25; VWDG: no more than 0.25.

In the case of RPYK, the enrichment ratio was no more than 0.25.

Turning to QSAC, the enrichment ratio was no more than 0.25. Turning to VEIA, the enrichment ratio was no more than 0.25. On to VDKF, for which the enrichment ratio is no more than 0.25. Next, NCSK: no more than 0.25; HMCD: no more than 0.25. The figure for NSYC is no more than 0.25.

For the variant KGVA, the enrichment ratio was no more than 0.25.

Turning to LCFW, the enrichment ratio is no more than 0.25. Regarding MDYT, the enrichment ratio is no more than 0.25. Turning to TNMH, the enrichment ratio stood at 15.7.

HICN: the enrichment ratio was no more than 0.25.

Take PLIW: the enrichment ratio was no more than 0.25. Next, SENW: no more than 0.25; LING: no more than 0.25.

For the variant FYAD, the enrichment ratio was no more than 0.25.

With SNGQ, the enrichment ratio came out at 6.34. Next, FDQP: no more than 0.25; YETQ: no more than 0.25; VNSL: 2.36. Next, LRFT: no more than 0.25. Next, VMIM: no more than 0.25.

Consider DGGP, for which the enrichment ratio was no more than 0.25.

For SSVD, the enrichment ratio is no more than 0.25.

For PFYH, the enrichment ratio is no more than 0.25. As for VPDS, the enrichment ratio was no more than 0.25.

In the case of ALWY, the enrichment ratio was no more than 0.25. The figure for DKSY is no more than 0.25; for DVHH it is no more than 0.25; for EFGY it is no more than 0.25. The figure for KAQH is no more than 0.25; for GMHC it is no more than 0.25; for AFLP it is no more than 0.25. The figure for EYTM is no more than 0.25.

For EGMF, the enrichment ratio is no more than 0.25. The figure for MEGG is no more than 0.25; for PRSN it is no more than 0.25; for STIR it is no more than 0.25.

As for MELH, the enrichment ratio was found to be 6.92. Next, VIST: no more than 0.25.
